For one series, the system named is BZLF1 enhancer. The series is described as follows: ChIP-qPCR of p53 binding. It counts as cell-based, EBV. The protocol: Twenty million cells were cross-linked on the plate by adding 1% formaldehyde in the culture medium for 10 min at room temperature. The reaction was stopped by adding 125 mM glycine and incubating for 10 min at room temperature. Cells were washed twice with cold PBS and collected by scraping. Cells were lysed in SDS buffer (1% SDS, 10 mM EDTA, 50 mM Tris pH 8.1) for 30 min on ice. For chromatin shearing, cell lysates were sonicated using the Covaris S220 ultrasonicator (Covaris). One percent of chromatin was conserved as an input sample. Fragmented chromatin was diluted ten times with Chromatin Dilution Buffer (0.01% SDS, 1.1% TritonX-100, 1.2 mM EDTA, 16.7 mM Tris-HCl pH 8.1, 167 mM NaCl) and precleared with Protein A/G magnetic beads mix (ThermoFisher) for 1 h at +4° C. on a rotator. Precleared chromatin was incubated with 5 μg anti-p53 DO1 antibody or anti-mouse IgG overnight on a rotator at +4° C. The day after, samples were incubated with Protein A/G magnetic beads mix for 1 h at +4° C. on a rotator. The beads were collected using magnet and washed five times with cold RIPA washing buffer (50 mM Hepes-KOH PH 7.6, 500 mM LiCl, 1 mM EDTA, 1% NP-40, 0.7% Na-deoxycholate) and twice with TE/NaCl buffer (10 mM Tris pH 8.0, 1 mM EDTA, 50 mM NaCl). DNA was eluted by incubating the beads in Elution buffer (50 mM Tris-HCl, pH 8.0, 10 mM EDTA, 1% SDS) for 30 min at 65° C. […]
(Real-time PCR tracks product formation cycle by cycle.)

In series [1] the test system is YCCEL1 cells. The format is cell-based, human.
In series [2] the test system is YCCEL1 cells. Kind of series: High content imaging of Zta-positive cells (immunofluorescence).
Series [3] deals with YCCEL1 cells. Kind of series: Western blot for Zta and total acetylation of histone 3. The format is cell-based, human. The following applies: for modified (SUMOylated) Zta bands: YCCEL1, anti-Zta immunoblot, topo II inhibitors alone or with chidamide (FIG. 14). The protocol: Protein concentration was determined by the Bradford assay.
In series [4] the target is T1, EBV Zta (BZLF1) peptide on HLA-B*18:01 (human).
T1 peptide: CDSELEIKR
Kind of series: cytokine release.

For series [5], the target named is T2, EBV Zta (BZLF1) peptide on HLA-A*23:01 (human).
T2 peptide: RYKNRVAS
Kind of series: cytokine release.

The target of series [6] is T3, EBV Zta (BZLF1) peptide on HLA-B*18:01 (human).
T3 peptide: DSELEIKRY
Kind of series: cytokine release.

The mark [7] stands for this setting: FIGS. 1C and 9D (YCCEL1; SNU719).

Entries after “also recorded” stand apart in the source; their conditions may differ.

Regarding `COc1ncc(-c2nc3c(n2C(C)C)[C@H](c2ccc(Cl)cc2)N(c2cc(Cl)cn(C)c2=O)C3=O)c(OC)n1` [HDM201], in the series on BZLF1 enhancer, the “p53 binding at the BZLF1 enhancer” value is “further increased”.

In the case of `O=C(/C=C/c1ccc(CN(CCO)CCc2c[nH]c3ccccc23)cc1)NO` [LAQ824], the “toxicity (cell number relative to DMSO)” value in the series on YCCEL1 cells [1] is listed as “high toxicity”. Moreover, in the series with YCCEL1 cells [2] (increasing concentrations (FIG. 1B)), the “Zta expression / EBV reactivation” value is “able to reactivate EBV”.

As to `O=C(/C=C/c1cccc(S(=O)(=O)Nc2ccccc2)c1)NO` [PXD101], in the series on YCCEL1 cells [3] (setting [7]), the “induction of Zta expression (Western blot)” value is on record as “failure” and the “total histone 3 acetylation (H3-ac)” value is given as “induced detectable H3-ac”.

Turning to `CN(C)CCN1C(=O)c2cccc3cc(N)cc(c23)C1=O` [amonafide], the “modified (SUMOylated) Zta bands” value with YCCEL1 cells [3] is “induced modified 47 kDa Zta bands”.

Regarding `Nc1cc(F)ccc1NC(=O)c1ccc(CNC(=O)/C=C/c2cccnc2)cc1` [chidamide], the “toxicity (cell number relative to DMSO)” value in the series with YCCEL1 cells [1] is on record as “low toxicity”. The “Zta+ cells” value in the series on YCCEL1 cells [2] (5 μM) came out at 5.8%; in the series on YCCEL1 cells [2] (10 μM) it was 14.5%. The “cells with reactivated EBV” value in the series with YCCEL1 cells [2] (chidamide 2.5 μM alone) is recorded as “less than 1%”.

On to `COc1cccc2c1C(=O)c1c(O)c3c(c(O)c1C2=O)C[C@@](O)(C(=O)CO)C[C@@H]3O[C@H]1C[C@H](N)[C@H](O)[C@H](C)O1` [doxorubicin], for which, in the series with YCCEL1 cells [3], the “modified (SUMOylated) Zta bands” value is “induced modified 47 kDa Zta bands; also recorded: induced a detectable 60 kDa Zta”.

`Nc1ccccc1NC(=O)c1ccc(CNC(=O)OCc2cccnc2)cc1` [entinostat]: the “toxicity (cell number relative to DMSO)” value in the series on YCCEL1 cells [1] is “high toxicity at high concentrations”.

On to `COc1cccc2c1C(=O)c1c(O)c3c(c(O)c1C2=O)C[C@@](O)(C(=O)CO)C[C@@H]3O[C@H]1C[C@H](N)[C@@H](O)[C@H](C)O1` [epirubicin], for which, in the series on BZLF1 enhancer, the “p53 binding at the BZLF1 enhancer” value is “further increased”.

`O=C1c2c(O)ccc(O)c2C(=O)c2c(NCCNCCO)ccc(NCCNCCO)c21` [mitoxantrone]: the “modified (SUMOylated) Zta bands” value in the series on YCCEL1 cells [3] was “induced modified 47 kDa Zta bands”.

Take `Nc1ccccc1NC(=O)c1ccc(CNc2nccc(-c3cccnc3)n2)cc1` [mocetinostat]: the “toxicity (cell number relative to DMSO)” value with YCCEL1 cells [1] was “high toxicity at high concentrations”.

For the molecule `Cc1[nH]c2ccccc2c1CCNCc1ccc(/C=C/C(=O)NO)cc1` [panobinostat], the “toxicity (cell number relative to DMSO)” value in the series on YCCEL1 cells [1] was “high toxicity”.

As for `COc1cc([C@@H]2c3cc4c(cc3[C@@H](O[C@@H]3O[C@@H]5CO[C@@H](c6cccs6)O[C@H]5[C@H](O)[C@H]3O)[C@H]3COC(=O)[C@H]23)OCO4)cc(OC)c1O` [teniposide], in the series with YCCEL1 cells [3], the “modified (SUMOylated) Zta bands” value was “induced modified 47 kDa Zta bands”.

B1: TCR132 (TCR)
alpha TRAV14*01 TRAJ52*01 CDR3: CAMREGSGVGTSYGK
beta TRBV29-1*01 TRBJ2-5*01 CDR3: CSAAGTSGSGETQYF
As to B1, the binding result in series [4] is listed as “recognises”.

B2: TCR34 (TCR)
alpha TRAV29*01 TRAJ16*01 CDR3: CAASEGGQKLLF
beta TRBV7-9*03 TRBJ2-4*01 CDR3: CASSAPNSDSAKNIQYF
On to B2, for which the binding result in series [5] is reported as “recognises”.

B3: TCR9 (TCR)
alpha TRAV13-1*02 TRAJ42*01 CDR3: CAASKEGGGSQGNLIF
beta TRBV20-1*02 TRBJ2-1*01 CDR3: CSARDRGEHPPNDQFF
For the molecule B3, the binding result in series [6] is on record as “recognises”.

B4: TCR131 (TCR)
alpha TRAV26-2*01 TRAJ47*01 CDR3: CILRDGVGYGNKLVF
beta TRBV9*02 TRBJ2-3*01 CDR3: CASEDRGGTDTQYF
For B4, the binding result in series [6] was “recognises”.

The values are drawn from patent US20240325539A1, “METHODS AND COMPOSITIONS FOR TREATING EPSTEIN BARR VIRUS-ASSOCIATED CANCER” (The Chancellor, Masters and Scholars of the University of …, priority 2020, published 2024).
